From the supplement of paper PMC8728848
The other results are listed elsewhere or left out.

Tests used:
Test in all cases: glycan array binding signal (z-score within array); higher = stronger binding
Settings in all cases: glycan notation: IUPAC condensed, linker removed; mutation: N288D, K313I
[1] = molecular target: Gal(b1-3)GlcNAc(b1-2)Man(a1-3)[Gal(b1-3)GlcNAc(b1-2)Man(a1-6)]Man(b1-4)GlcNAc(b1-4)GlcNAc
How it was run: (§1)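 From the Consortium for Functional Glycomics database, 3228 arrays were curated, keeping only those whose protein sequence was available. Binding is given as a within-array Z-score averaged across arrays sharing a protein sequence and across linkers. Negative Z-scores can be read as non-binding.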

[2] = molecular target: Gal(b1-3)GlcNAc(b1-2)Man(a1-3)[Gal(b1-3)GlcNAc(b1-2)Man(a1-6)]Man(b1-4)GlcNAc(b1-4)[Fuc(a1-6)]GlcNAc
How it was run: as §1

[3] = molecular target: Gal(b1-3)GlcNAc(b1-2)Man(a1-3)[GlcNAc(b1-4)][Gal(b1-3)GlcNAc(b1-2)Man(a1-6)]Man(b1-4)GlcNAc(b1-4)GlcNAc
How it was run: as §1

[4] = molecular target: Gal(b1-3)GlcNAc(b1-2)[Gal(b1-3)GlcNAc(b1-6)]Man(a1-6)[Gal(b1-3)GlcNAc(b1-2)Man(a1-3)]Man(b1-4)GlcNAc(b1-4)GlcNAc
How it was run: as §1

[5] = molecular target: Gal(b1-3)GlcNAc(b1-3)Gal(b1-3)GlcNAc
How it was run: as §1

[6] = molecular target: Gal(b1-3)GlcNAc(b1-3)Gal(b1-4)Glc
How it was run: as §1

[7] = molecular target: Gal(b1-3)GlcNAc(b1-3)Gal(b1-4)GlcNAc
How it was run: as §1

[8] = molecular target: Gal(b1-3)GlcNAc(b1-3)Gal(b1-4)GlcNAc(b1-2)Man(a1-3)[Gal(b1-3)GlcNAc(b1-3)Gal(b1-4)GlcNAc(b1-2)Man(a1-6)]Man(b1-4)GlcNAc(b1-4)GlcNAc
How it was run: as §1

[9] = molecular target: Gal(b1-3)GlcNAc(b1-3)Gal(b1-4)GlcNAc(b1-2)[Gal(b1-3)GlcNAc(b1-3)Gal(b1-4)GlcNAc(b1-6)]Man(a1-6)[Gal(b1-3)GlcNAc(b1-3)Gal(b1-4)GlcNAc(b1-2)Man(a1-3)]Man(b1-4)GlcNAc(b1-4)[Fuc(a1-6)]GlcNAc
How it was run: as §1

[10] = molecular target: Gal(b1-3)GlcNAc(b1-3)Gal(b1-4)GlcNAc(b1-3)Gal(b1-4)GlcNAc(b1-2)[Gal(b1-3)GlcNAc(b1-3)Gal(b1-4)GlcNAc(b1-3)Gal(b1-4)GlcNAc(b1-6)]Man(a1-6)[Gal(b1-3)GlcNAc(b1-3)Gal(b1-4)GlcNAc(b1-3)Gal(b1-4)GlcNAc(b1-2)Man(a1-3)]Man(b1-4)GlcNAc(b1-4)[Fuc(a1-6)]GlcNAc
How it was run: as §1

[11] = molecular target: Gal(b1-3)GlcNAc(b1-3)Gal(b1-4)GlcNAc(b1-6)[Gal(b1-3)GlcNAc(b1-3)]Gal(b1-4)Glc
How it was run: as §1

[12] = molecular target: Gal(b1-3)GlcNAc(b1-3)Gal(b1-4)[Fuc(a1-3)]GlcNAc
How it was run: as §1

[13] = molecular target: Gal(b1-3)GlcNAc(b1-3)Gal(b1-4)[Fuc(a1-3)]GlcNAc(b1-6)[Gal(b1-3)GlcNAc(b1-3)]Gal(b1-4)Glc
How it was run: as §1

[14] = molecular target: Gal(b1-3)GlcNAc(b1-3)GalNAc
How it was run: as §1

[15] = molecular target: Gal(b1-3)GlcNAc(b1-6)Gal(b1-4)GlcNAc
How it was run: as §1

[16] = molecular target: Gal(b1-3)GlcNAc(b1-6)GalNAc
How it was run: as §1

[17] = molecular target: Gal(b1-3)GlcNAc(b1-6)[Gal(b1-3)]GalNAc
How it was run: as §1

Gal(b1-3)GlcNAc6S = molecular target: Gal(b1-3)GlcNAc6S
How it was run: as §1

[18] = molecular target: Gal(b1-3)[Fuc(a1-4)]GlcNAc
How it was run: as §1

[19] = molecular target: Gal(b1-3)[Fuc(a1-4)]GlcNAc(b1-2)Man
How it was run: as §1

[20] = molecular target: Gal(b1-3)[Fuc(a1-4)]GlcNAc(b1-2)Man(a1-3)[Gal(b1-3)[Fuc(a1-4)]GlcNAc(b1-2)Man(a1-6)]Man(b1-4)GlcNAc(b1-4)[Fuc(a1-6)]GlcNAc
How it was run: as §1

[21] = molecular target: Gal(b1-3)[Fuc(a1-4)]GlcNAc(b1-3)Gal(b1-3)[Fuc(a1-4)]GlcNAc
How it was run: as §1

[22] = molecular target: Gal(b1-3)[Fuc(a1-4)]GlcNAc(b1-3)Gal(b1-4)[Fuc(a1-3)]GlcNAc
How it was run: as §1

[23] = molecular target: Gal(b1-3)[Fuc(a1-4)]GlcNAc(b1-6)GalNAc
How it was run: as §1

[24] = molecular target: Gal(b1-3)[GlcNAc(b1-6)]GalNAc
How it was run: as §1

[25] = molecular target: Gal(b1-3)[Neu5Ac(a2-6)]GalNAc
How it was run: as §1

[26] = molecular target: Gal(b1-3)[Neu5Ac(a2-6)]GlcNAc(b1-4)Gal(b1-4)Glc
How it was run: as §1

[27] = molecular target: Gal(b1-3)[Neu5Ac(b2-6)]GalNAc
How it was run: as §1

Gal(b1-4)Gal = molecular target: Gal(b1-4)Gal
How it was run: as §1

[28] = molecular target: Gal(b1-4)GalNAc(a1-3)[Fuc(a1-2)]Gal(b1-4)GlcNAc
How it was run: as §1

[29] = molecular target: Gal(b1-4)GalNAc(b1-3)[Fuc(a1-2)]Gal(b1-4)GlcNAc
How it was run: as §1

Gal(b1-4)Glc = molecular target: Gal(b1-4)Glc
How it was run: as §1

Gal(b1-4)Glc6S = molecular target: Gal(b1-4)Glc6S
How it was run: as §1

Gal(b1-4)GlcNAc = molecular target: Gal(b1-4)GlcNAc
How it was run: as §1

[30] = molecular target: Gal(b1-4)GlcNAc(a1-6)Gal(b1-4)GlcNAc
How it was run: as §1

Gal(b1-4)GlcNAc(b1-2)Man = molecular target: Gal(b1-4)GlcNAc(b1-2)Man
How it was run: as §1

[31] = molecular target: Gal(b1-4)GlcNAc(b1-2)Man(a1-3)Man(b1-4)GlcNAc(b1-4)GlcNAc
How it was run: as §1

[32] = molecular target: Gal(b1-4)GlcNAc(b1-2)Man(a1-3)[Gal(b1-4)GlcNAc(b1-2)Man(a1-6)]Man(b1-4)GlcNAc(b1-4)GlcNAc
How it was run: as §1

[33] = molecular target: Gal(b1-4)GlcNAc(b1-2)Man(a1-3)[Gal(b1-4)GlcNAc(b1-2)Man(a1-6)]Man(b1-4)GlcNAc(b1-4)[Fuc(a1-6)]GlcNAc
How it was run: as §1

[34] = molecular target: Gal(b1-4)GlcNAc(b1-2)Man(a1-3)[Gal(b1-4)GlcNAc(b1-2)Man(a1-6)][Gal(b1-4)GlcNAc(b1-4)]Man(b1-4)GlcNAc(b1-4)[Fuc(a1-6)]GlcNAc
How it was run: as §1

[35] = molecular target: Gal(b1-4)GlcNAc(b1-2)Man(a1-3)[Gal(b1-4)GlcNAc(b1-2)Man(a1-6)][GlcNAc(b1-4)]Man(b1-4)GlcNAc(b1-4)[Fuc(a1-6)]GlcNAc
How it was run: as §1

[36] = molecular target: Gal(b1-4)GlcNAc(b1-2)Man(a1-3)[GlcNAc(b1-2)Man(a1-6)]Man(b1-4)GlcNAc(b1-4)GlcNAc
How it was run: as §1

[37] = molecular target: Gal(b1-4)GlcNAc(b1-2)Man(a1-3)[GlcNAc(b1-4)][Gal(b1-4)GlcNAc(b1-2)Man(a1-6)]Man(b1-4)GlcNAc(b1-4)GlcNAc
How it was run: as §1

[38] = molecular target: Gal(b1-4)GlcNAc(b1-2)Man(a1-3)[Man(a1-6)]Man(b1-4)GlcNAc(b1-4)GlcNAc
How it was run: as §1

[39] = molecular target: Gal(b1-4)GlcNAc(b1-2)Man(a1-6)Man(b1-4)GlcNAc(b1-4)GlcNAc
How it was run: as §1

B1: Langerin (Homo sapiens), Q9UJ71 (protein)
chain: STLNAQIPELKSDLEKASALNTKIRALQGSLENMSKLLKRQNDILQVVSQGWKYFKGNFYYFSLIPKTWYSAEQFCVSRNSHLTSVTSESEQEFLYKTAGGLIYWIGLTKAGMEGDWSWVDDTPFNKVQSARFWIPGEPNDAGNNEHCGNIKAPSLQAWNDAPCDITFLFICKRPYVPSEP
[1]
  glycan array binding signal (z-score): 0.101
[2]
  glycan array binding signal (z-score): -0.098
[3]
  glycan array binding signal (z-score): 0.469
[4]
  glycan array binding signal (z-score): 0.147
[5]
  glycan array binding signal (z-score): -0.248
[6]
  glycan array binding signal (z-score): -0.292
[7]
  glycan array binding signal (z-score): -0.275
[8]
  glycan array binding signal (z-score): 0.441
[9]
  glycan array binding signal (z-score): 5.7
[10]
  glycan array binding signal (z-score): 7.74
[11]
  glycan array binding signal (z-score): -0.218
[12]
  glycan array binding signal (z-score): -0.264
[13]
  glycan array binding signal (z-score): -0.241
[14]
  glycan array binding signal (z-score): 0.097
[15]
  glycan array binding signal (z-score): -0.29
[16]
  glycan array binding signal (z-score): -0.138
[17]
  glycan array binding signal (z-score): 0.13
Gal(b1-3)GlcNAc6S
  glycan array binding signal (z-score): -0.276
[18]
  glycan array binding signal (z-score): -0.263
[19]
  glycan array binding signal (z-score): 0.02
[20]
  glycan array binding signal (z-score): 0.476
[21]
  glycan array binding signal (z-score): -0.072
[22]
  glycan array binding signal (z-score): 0.008
[23]
  glycan array binding signal (z-score): -0.017
[24]
  glycan array binding signal (z-score): -0.203
[25]
  glycan array binding signal (z-score): -0.085
[26]
  glycan array binding signal (z-score): -0.173
[27]
  glycan array binding signal (z-score): -0.073
Gal(b1-4)Gal
  glycan array binding signal (z-score): -0.053
[28]
  glycan array binding signal (z-score): -0.324
[29]
  glycan array binding signal (z-score): -0.285
Gal(b1-4)Glc
  glycan array binding signal (z-score): -0.276
Gal(b1-4)Glc6S
  glycan array binding signal (z-score): -0.072
Gal(b1-4)GlcNAc
  glycan array binding signal (z-score): -0.269
[30]
  glycan array binding signal (z-score): -0.185
Gal(b1-4)GlcNAc(b1-2)Man
  glycan array binding signal (z-score): -0.102
[31]
  glycan array binding signal (z-score): -0.101
[32]
  glycan array binding signal (z-score): -0.207
[33]
  glycan array binding signal (z-score): 0.079
[34]
  glycan array binding signal (z-score): -0.009
[35]
  glycan array binding signal (z-score): -0.293
[36]
  glycan array binding signal (z-score): -0.225
[37]
  glycan array binding signal (z-score): -0.237
[38]
  glycan array binding signal (z-score): 0.009
[39]
  glycan array binding signal (z-score): -0.198
